# Screen size: about 390,000 compounds; about 2,200 (0.56%) were called active. This list was built around the results that the source calls inconclusive (neither active nor inactive); the mix of calls is not that of the screen. The call rests on the fitted dose curve; in most records, active means well fitted inhibition curve with a large enough effect; inconclusive means small, poorly fitted or top-dose-only effect; inactive means no such curve, though single readings can be large or run the other way. Potencies beside an inconclusive call are fits to weak or partial responses and may not hold up.
# Target: Chromobox protein homolog 1 (Homo sapiens) (UniProt P83916)
# UniProt P83916, sequence (P83916 whole entry, looked up): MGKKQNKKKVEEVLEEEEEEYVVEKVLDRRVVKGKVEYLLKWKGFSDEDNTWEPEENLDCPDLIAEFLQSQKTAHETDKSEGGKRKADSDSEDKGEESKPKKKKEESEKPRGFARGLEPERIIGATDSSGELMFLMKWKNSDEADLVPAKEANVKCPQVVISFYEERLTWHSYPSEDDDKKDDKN
# Experiment: HTS for Inhibitors of HP1-beta Chromodomain Interactions with Methylated Histone Tails; further: nearly all actives have a fitted effect of over 70% in size
# Details: AlphaScreen HP1-beta / biotin-H3K9me3 peptide binding; series mostly up to 114 µM
# How it was run: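 HP1-beta protein (50 nM final) preincubated 30 min at room temperature with biotinylated H3(1-18)K9me3 peptide (50 nM) in PBS pH 7.4, 0.01% Tween-20, then compound added for 30 min. AlphaScreen streptavidin donor/nickel chelate acceptor beads (10 ug/mL final), 30 min dark, luminescence read.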
# Potency means the concentration at half of the fitted maximal effect; tags describe the fitted curve by direction and shape.
row,Compound,Potency
1,Cc1ccccc1OCCCn1c(CCNC(=O)C2CCCCC2)nc2ccccc21,inactive
2,Oc1c(Cl)cc(Cl)cc1C=Nc1ccc(N2CCOCC2)cc1,inactive
3,CC(C)CCN1CCN(Cc2cccn2-c2ccc(Cl)cn2)CC1CCO (stereo not drawn),"inconclusive: 50.1 µM [inhibitor, partial curve]"
4,CCCC1CCC(c2ccc(C(N)=O)cc2)CC1 (stereo not drawn),inactive
5,O=C(CC(NS(=O)(=O)c1ccc(Cl)cc1)c1ccco1)NCc1ccco1 (stereo not drawn),"inconclusive: 31.6 µM [inhibitor, full curve]"
6,Cc1nc(C)c(-c2ccnc(/N=C/NO)n2)s1,inactive
7,Cc1nc([N+](=O)[O-])c(Br)n1CC(=O)c1ccc(Cl)cc1,inactive
8,COc1ccccc1CN1CCN(S(=O)(=O)c2ccccc2)CC1,"inconclusive: 31.6 µM [inhibitor, single point]"
9,CCOC(=O)N1CCN(C(=O)CNCc2cccs2)CC1,"inconclusive: 56.2 µM [inhibitor, single point]"
10,Cc1nc(COC(=O)c2cc(O)c3ccccc3c2O)cs1,"inconclusive: 8.91 µM [inhibitor, full curve]"
11,O=[N+]([O-])c1ccc(/C=N/Nc2ccc3ccccc3c2)o1,"inconclusive: 6.31 µM [inhibitor, full curve]"
12,S=C(NCCN1CCOCC1)C(=S)NCCN1CCOCC1,inactive
13,CC(C)C1Oc2ccccc2N(CC(=O)NC2CCCCC2)C1=O (stereo not drawn),inactive
14,Cn1ncc(Br)c1C(=O)N/N=C/c1cccc(OC2CSC2)c1,"inconclusive: 39.8 µM [inhibitor, single point]"
15,C=CC[n+]1c(/C=C2\C=Cc3cc(C)ccc3N2CC)ccc2ccccc21,"inconclusive: 35.5 µM [inhibitor, partial curve]"
16,CC1CCc2c(sc3nn[nH]c(=O)c23)C1 (stereo not drawn),inactive
17,O=C(CN1CCN(c2ccc(O)cc2)CC1)Nc1ccccc1C(=O)NCCc1ccccc1,"inconclusive: 70.8 µM [inhibitor, partial curve]"
18,COc1ccccc1C(=O)N=C1SC2CS(=O)(=O)CC2N1c1ccccc1 (stereo not drawn),inactive
19,COc1cccc(NC(=O)CN(C)C(=O)c2cc(-c3ccco3)nc3ccccc23)c1,"inconclusive: 50.1 µM [inhibitor, partial curve, poor fit]"
20,O=C(CSc1nnnn1C1CC1)N1CCN(c2ccccc2F)CC1,"inconclusive: 89.1 µM [inhibitor, single point]"
21,O=C(NN=Cc1ccc(F)cc1)c1ccccc1NS(=O)(=O)c1cccs1,inactive
22,CC(=O)C1=C(O)C(=O)N(CCCN2CCOCC2)C1c1ccccc1[N+](=O)[O-] (stereo not drawn),"inconclusive: 39.8 µM [inhibitor, partial curve]"
23,COc1ccc(/C=N/c2oc(-c3ccccc3)cc2C#N)cc1,"inconclusive: 17.8 µM [inhibitor, full curve]"
24,CCN(CC)c1ccc(C=C2SC(=S)NC2=O)cc1,"inconclusive: 25.1 µM [inhibitor, partial curve]"
25,CCOC(=O)c1c(C)[nH]c(O)c1C=Nc1ccc(Cl)cc1,"inconclusive: 28.2 µM [inhibitor, single point]"

row,Compound,Potency
1,CC(C)c1nnc(NC(=O)CCC(=O)N2CCN(c3ccc(Cl)cc3)CC2)s1,inactive
2,COc1cc2nc(SCc3c(C)noc3C)n(CCC3=CCCCC3)c(=O)c2cc1OC,"inconclusive: 3.55 µM [inhibitor, full curve]"
3,CC(=O)CSc1nc2ccccc2s1,"inconclusive: 39.8 µM [inhibitor, single point]"
4,Cc1c(C(=O)N2CCC(C)CC2)c(S(=O)(=O)NCc2ccc(Br)cc2)c(C)n1C,inactive
5,CCN(CC)c1ccc(/C=N/N2CCN(Cc3ccc(Cl)cc3)CC2)c(O)c1,"inconclusive: 14.1 µM [inhibitor, full curve]"
6,Cc1ccccc1Nc1c(-c2ccc(Cl)s2)nc2c(C)cccn12,"inconclusive: 12.6 µM [inhibitor, partial curve, poor fit]"
7,Cc1cccc2c(=O)c(-c3ccc4c(c3)OCO4)c(NC(=O)c3ccco3)oc12,inactive
8,Cc1ccc(N2CC(NC(=O)c3ccc(S(=O)(=O)N4CCCC4)cc3)CC2=O)cc1 (stereo not drawn),inactive
9,Cc1c(CCC(=O)O)c(=O)oc2c(C)c3occ(-c4ccc(Br)cc4)c3cc12,"inconclusive: 79.4 µM [inhibitor, single point]"
10,CC1=C/C(=N\NC(=S)Nc2cccnc2)CC(C)(C)C1,"inconclusive: 39.8 µM [inhibitor, partial curve, poor fit]"
11,N#Cc1c(-n2ncnc2-c2ccc(Br)cc2)sc2c1CCCCC2,"inconclusive: 10 µM [inhibitor, partial curve]"
12,O=[N+]([O-])c1ccccc1CNC1CCCCCC1,"inconclusive: 56.2 µM [inhibitor, single point]"
13,Clc1ccc(SCCn2ccnc2)cc1,"inconclusive: 50.1 µM [inhibitor, partial curve, poor fit]"
14,CNC(=O)Nc1ccccc1C(=O)Nc1ccccc1,"inconclusive: 89.1 µM [inhibitor, partial curve, poor fit]"
15,Cc1cc(=O)oc2c(C)c(OCC(=O)NCCCn3ccnc3)ccc12,inactive
16,CCC1(c2ccccc2)NC(=O)N(CC(=O)Nc2ccccc2N2CCCC2)C1=O (stereo not drawn),inactive
17,Cn1c(=S)ccc2ccccc21,"inconclusive: 28.2 µM [inhibitor, partial curve]"
18,COc1ccc(S(=O)(=O)Nc2cc(C)c(O)cc2C(C)C)cc1,inactive
19,CSc1ccc(C2C(C#N)=C(N)Oc3c2ccc(=O)c2c(C)oc(C)c32)cc1 (stereo not drawn),"inconclusive: 70.8 µM [inhibitor, partial curve]"
20,CC1CCN(CCOc2cc(Cl)ccc2Cl)CC1,"inconclusive: 79.4 µM [inhibitor, single point]"
21,COc1ccc(NCC(=O)N/N=C/c2cc([N+](=O)[O-])ccc2N2CCCC2)cc1,"inconclusive: 5.01 µM [inhibitor, full curve, poor fit]"
22,O=C(NCC1CC1)c1ccc(Nc2nc3ccc(Br)cc3[nH]2)cc1,"inconclusive: 17.8 µM [inhibitor, full curve]"
23,O=S(=O)(c1cccs1)N1CCN(CC(O)COc2cccc(Br)c2)CC1 (stereo not drawn),"inconclusive: 25.1 µM [inhibitor, single point]"
24,O=c1c2nncn2ccn1-c1ccc(F)c(F)c1,inactive
25,O=C1NN(c2ccccc2)C(=O)/C1=C\c1ccc(-c2cc([N+](=O)[O-])ccc2O)o1,active: 44.7 µM

row,Compound,Potency
1,CC1CCCCC12NC(=S)N(c1ccccc1)N2 (stereo not drawn),"inconclusive: 25.1 µM [inhibitor, full curve]"
2,Cc1ccc2c(c1)c(C)c(C)n2CC(O)Cn1nnc2ccccc21 (stereo not drawn),"inconclusive: 56.2 µM [inhibitor, partial curve]"
3,CC(C)(C)c1nnc(NC(=O)c2ccc3c(c2)OCO3)s1,"inconclusive: 56.2 µM [inhibitor, partial curve, poor fit]"
4,Cc1cc(C(=O)CCl)c(C)n1CCc1ccccc1,"inconclusive: 28.2 µM [inhibitor, full curve]"
5,CCCCCCC(=O)N(O)C1CC(=O)N(c2ccc(C)cc2)C1=O (stereo not drawn),"inconclusive: 70.8 µM [inhibitor, single point]"
6,COCCCNC(=S)N1CCN(S(=O)(=O)c2ccc(OC)cc2)CC1,"inconclusive: 39.8 µM [inhibitor, single point]"
7,C=CCOc1ccc(C(c2c(C(=O)O)[nH]c3ccccc23)c2c(C(=O)O)[nH]c3ccccc23)cc1,active: 70.8 µM
8,Cc1ccc(Nc2nnc(SCc3cc(=O)n4cc(C)ccc4n3)s2)cc1,inactive
9,O=C(CSc1nnc(-c2cccnc2)n1-c1ccccc1)Nc1ccccn1,"inconclusive: 8.91 µM [inhibitor, single point]"
10,CCCCNCCOCCOc1ccccc1-c1ccccc1,"inconclusive: 56.2 µM [inhibitor, single point]"
11,CCc1cc(-c2ccc3c(c2)COc2c4ccccc4nn2-3)on1,inactive
12,COc1cccc(NC(=O)Cc2nnc(SCC(=O)c3ccccc3)n2C)c1,inactive
13,COc1cc(/C=N/NC(=O)NC2CCCCC2)cc(OC)c1O,inactive
14,Cc1cc(C(=O)CN2C(=O)NC(c3ccccc3)(c3ccccc3)C2=O)c(C)n1Cc1ccco1,"inconclusive: 39.8 µM [inhibitor, single point]"
15,CCOC(=O)N1CCN(C(=O)CN(c2cccc(C)c2)S(=O)(=O)c2ccc(C)cc2)CC1,inactive
16,Oc1cccc(Nc2ncnc3c2oc2ccccc23)c1,inactive
17,COC(=O)[C@@H]1[C@@H](C#N)C2(c3ccccc3-c3ccccc32)N(c2ccc(Cl)cc2)N1C#N,"inconclusive: 15.8 µM [inhibitor, full curve]"
18,CCN1C=C(Cc2ccccc2C)C2=C(C1)C(c1ccccc1C)C(C#N)=C(N)O2 (stereo not drawn),"inconclusive: 70.8 µM [inhibitor, partial curve]"
19,COc1ccc(NC(=O)c2cccc(S(=O)(=O)NCc3ccco3)c2)c(OC)c1,inactive
20,CC/C(=C\C(=O)c1ccncc1)Nc1ccc(O)cc1,"inconclusive: 79.4 µM [inhibitor, single point]"
21,CC(C)N1CCN(S(=O)(=O)c2ccc3ccccc3c2)CC1,"inconclusive: 35.5 µM [inhibitor, partial curve]"
22,Cc1ccn2c(Nc3ccc4c(c3)OCCO4)c(-c3ccc(N(C)C)cc3)nc2c1,"inconclusive: 28.2 µM [inhibitor, full curve]"
23,C=CCn1c(SCC(=O)Nc2cc(NC(C)=O)ccc2OC)nnc1-c1ccccn1,inactive

# From PubChem BioAssay AID540317 (National Center for Advancing Translational Sciences (NCATS), 2011)
